Test results: PubChem BioAssay (NCATS)
Several values for one entry are separate records, joined by “and”; a condition that tells them apart may be missing. Identical values can stand only once. Inconclusive results, whose numbers are uncertain, are shown with a selection of clear calls. Potencies of inconclusive entries are doubtful fits and often do not repeat. Activity calls are given as the source filed them. The call rests on the fitted dose curve; in most records, active means well fitted curve in the direction sought with a large enough effect; inconclusive means small, poorly fitted or top-dose-only effect, or another doubt; inactive means no such curve, though single readings can be large; an effect the other way counts as inactive or inconclusive.

Columns and labels:
CRL-7250 = normal cell line; assay: Cytotoxic Profiling of Annotated Libraries Using Quantitative High-Throughput Screening (AID 1296008); conditions: Five cell lines viability, CellTiter-Glo ATP luminescence, 48-72 h; max response: stronger effect = lower value; further: nearly all actives have a fitted effect of over 60% in size; on max response: on the % scale 0 is the no-effect control and ±100 the full control effect
How it was run: (§1)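 Compounds were pin-transferred onto cells and incubated 48 or 72 hr at 37 degree Celsius, 95% humidity. CellTiter-Glo was added, plates sat 10 min at room temperature, then ATP-coupled luminescence was imaged as the viability read-out.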

KB-3-1 = assay: as above; conditions: Five cell lines viability, CellTiter-Glo ATP luminescence, 48-72 h; max response: stronger effect = lower value
How it was run: as §1

NIH3T3 = assay: as above; conditions: Five cell lines viability, CellTiter-Glo ATP luminescence, 48-72 h; max response: stronger effect = lower value
How it was run: as §1

MCC-13 = assay: qHTS assay to identify novel small-molecules to repurpose for Merkel cell carcinoma treatment (AID 1296009); conditions: MCC and control cell lines, CellTiter-Glo viability, 72 h; series mostly up to 46 µM; further: nearly all actives have a fitted effect of over 60% in size
How it was run: (§2)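 qHTS format: cells treated with library compounds in DMSO across 8 (NPC) or 11 (MIPE) concentrations. Readout after 72 hr at 37 degree celsius was CellTiter-Glo luminescence.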

MKL-2 = assay: as above; conditions: MCC and control cell lines, CellTiter-Glo viability, 72 h; series mostly up to 46 µM
How it was run: as §2

UISO = assay: as above; conditions: MCC and control cell lines, CellTiter-Glo viability, 72 h; series mostly up to 46 µM
How it was run: as §2

C33A = assay: Primary qHTS to identify gynecologic anti-cancer compounds using libraries of approved drugs and bioactive compounds (AID 1345084); conditions: Gynecologic cancer cell panel viability, ATPlite luminescence, 48 h; series mostly up to 57.5 µM; further: nearly all actives have a fitted effect of over 55% in size
How it was run: (§3)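 Cells, 1,000 per well, plated 16 h, then exposed 48 h at 37 C to compounds. Viability by ATPlite luminescence after 15 min at room temperature.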

CASKI = assay: as above; conditions: Gynecologic cancer cell panel viability, ATPlite luminescence, 48 h; activity change, negative = cytotoxicity: at 57.5 µM (top of the series)
How it was run: as §3

Es-2 = assay: as above; conditions: Gynecologic cancer cell panel viability, ATPlite luminescence, 48 h; series mostly up to 57.5 µM
How it was run: as §3

HeLa = assay: as above; conditions: Gynecologic cancer cell panel viability, ATPlite luminescence, 48 h; series mostly up to 57.5 µM
How it was run: as §3

MCC-26 = assay: qHTS assay to identify novel small-molecules to repurpose for Merkel cell carcinoma treatment (AID 1296009); conditions: MCC and control cell lines, CellTiter-Glo viability, 72 h; series mostly up to 46 µM; further: nearly all actives have a fitted effect of over 60% in size
How it was run: as §2

MKL-1 = assay: as above; conditions: MCC and control cell lines, CellTiter-Glo viability, 72 h; series mostly up to 46 µM
How it was run: as §2

WaGa = assay: as above; conditions: MCC and control cell lines, CellTiter-Glo viability, 72 h; series mostly up to 46 µM
How it was run: as §2

[1] = qHTS assay to identify inhibitors of the type 1 interferon - major histocompatibility complex class I in skeletal muscle: Counter screen cell viability and HiBit confirmation (AID 1347412); conditions: iHSKM muscle cells + IFN-b, HiBiT or CellTiter-Glo, 24 h; further: nearly all actives have a fitted effect of over 60% in size; on activity change, negative = inhibition: on the % scale 0 is the no-effect control and ±100 the full control effect
How it was run: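 Luminescence read-out: Nano-Glo HiBiT lytic signal from C-terminally HiBiT-tagged HLA-B in CRISPR-edited human myoblasts, plus CellTiter Glo ATP as viability counter screen. IFN-beta 4.0 ng/ml; 24 hrs treatment at 37 C, 5% CO2.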

astro = assay: Drug repurposing screens with cells derived from glioblastoma tumor samples (AID 1345199); conditions: viability, ATP luminescence, 48 h; activity, negative = cell killing: at 45.9 µM (top of the series); further: nearly all actives have a fitted effect of over 40% in size
How it was run: (§4)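 Four patient lines of CD133+ GBM neurospheres were screened at several concentrations; hits were retested in those lines plus three slower-growing GBM lines, using 48-hour treatment and ATP-based viability.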

HaCat = assay: Cytotoxic Profiling of Annotated Libraries Using Quantitative High-Throughput Screening (AID 1296008); conditions: Five cell lines viability, CellTiter-Glo ATP luminescence, 48-72 h; max response: stronger effect = lower value; further: nearly all actives have a fitted effect of over 60% in size; on max response: on the % scale 0 is the no-effect control and ±100 the full control effect
How it was run: as §1

CAOV3 = assay: Primary qHTS to identify gynecologic anti-cancer compounds using libraries of approved drugs and bioactive compounds (AID 1345084); conditions: Gynecologic cancer cell panel viability, ATPlite luminescence, 48 h; series mostly up to 57.5 µM; further: nearly all actives have a fitted effect of over 55% in size
How it was run: as §3

[2] = Drug repurposing screens with cells derived from glioblastoma tumor samples (AID 1345199); conditions: GBM patient neurospheres viability, ATP luminescence, 48 h; Potency: tumour line A unless noted; activity, negative = cell killing: at 46 µM (top of the series), tumour line A unless noted; further: nearly all actives have a fitted effect of over 40% in size
How it was run: as §4
Potency means the concentration at half of the fitted maximal effect; tags describe the fitted curve by direction and shape.

COc1cc2c(cc1OC)-c1cc(=Nc3c(C)cc(C)cc3C)n(C)c(=O)n1CC2
Potency (CRL-7250): inconclusive: 29.9 µM [inhibitor, single point]
Potency (KB-3-1): inconclusive: 32.6 µM [inhibitor, single point]
Potency (NIH3T3): inconclusive: 21.1 µM [inhibitor, single point]
Potency (MCC-13): inconclusive: 11.9 µM [inhibitor, partial curve]
Potency (MKL-2): inconclusive: 33.5 µM [inhibitor, single point]
Potency (UISO): inconclusive: 33.5 µM [inhibitor, single point]
Potency (C33A): inconclusive: 39.8 µM [cytotoxic, single point]
Potency (CASKI): inconclusive: 39.8 µM [cytotoxic, single point]
Potency (Es-2): inconclusive: 39.8 µM [cytotoxic, single point]
Potency (HeLa): inconclusive: 39.8 µM [cytotoxic, single point]

COc1ccc(C=Cc2cc(OC)c(OC)c(OC)c2)cc1NC(=O)[C@H](N)CO
Potency (CRL-7250): active: 0.0332 µM
Potency (NIH3T3): inconclusive: 0.0053 µM [inhibitor, full curve]
Potency (MCC-13): inconclusive: 0.0083 µM [inhibitor, full curve]
Potency (MCC-26): inconclusive: 0.0066 µM [inhibitor, full curve]
Potency (MKL-1): inconclusive: 0.0235 µM [inhibitor, full curve]
Potency (WaGa): inconclusive: 0.0074 µM [inhibitor, full curve]
Potency ([1]; HiBiT): inconclusive: 0.125 µM [inhibitor, full curve]
Potency ([1]; Viability): inconclusive: 0.313 µM [cytotoxic, full curve]

CCN(CC)C(=O)/C(C#N)=C/c1cc(O)c(O)c([N+](=O)[O-])c1
Potency (CRL-7250): inconclusive: 33.5 µM [inhibitor, single point]
max response (KB-3-1): inactive: 3.63%
Potency (MKL-1): inconclusive: 26.6 µM [inhibitor, single point]
Potency (MKL-2): inconclusive: 16.8 µM [inhibitor, partial curve]
Potency (WaGa): inconclusive: 29.9 µM [inhibitor, single point]
Potency (astro): inconclusive: 35.5 µM [inhibitor, partial curve]

C#CCC(Cc1cnc2nc(N)nc(N)c2n1)c1ccc(C(=O)N[C@@H](CCC(=O)O)C(=O)O)cc1 (some centres not stated)
Potency (CRL-7250): inconclusive: 0.0332 µM [inhibitor, full curve]
Potency (NIH3T3): active: 0.332 µM
Potency (MCC-13): inconclusive: 0.166 µM [inhibitor, full curve, poor fit]
Potency (MKL-1): inconclusive: 1.05 µM [inhibitor, full curve]
Potency (UISO): inconclusive: 0.105 µM [inhibitor, full curve]

Cc1cccc(C)c1NC(=O)CN1CCN(CCCC(c2ccc(F)cc2)c2ccc(F)cc2)CC1
Potency (CRL-7250): inconclusive: 29.9 µM [inhibitor, single point]
Potency (HaCat): inconclusive: 33.5 µM [inhibitor, single point]
Potency (MKL-2): inconclusive: 7.5 µM [inhibitor, single point]
Potency (C33A): inconclusive: 39.8 µM [cytotoxic, single point]
Potency (CAOV3): inconclusive: 39.8 µM [cytotoxic, single point]
Potency (HeLa): inconclusive: 25.1 µM [cytotoxic, single point]

CC[C@]12C=CCN3CC[C@@]4(c5cc([C@@]6(C(=O)OC)C[C@H]7C[C@@H](C(C)(F)F)CN(Cc8c6[nH]c6ccccc86)C7)c(OC)cc5N(C)[C@H]4[C@@](O)(C(=O)OC)[C@H]1OC(C)=O)[C@@H]32
Potency (CRL-7250): inconclusive: 0.0296 µM [inhibitor, full curve]
Potency (KB-3-1): active: 0.0105 µM
Potency (NIH3T3): inconclusive: 0.0166 µM [inhibitor, full curve]
Potency (MCC-13): inconclusive: 0.332 µM [inhibitor, full curve]
Potency (MCC-26): inconclusive: 0.166 µM [inhibitor, full curve]
Potency (MKL-1): inconclusive: 0.0332 µM [inhibitor, full curve]
Potency (MKL-2): inconclusive: 0.0074 µM [inhibitor, full curve, poor fit]
Potency (WaGa): active: 0.0059 µM

COc1cc(/C=C/C(=O)O[C@H]2CC[C@]34C[C@]35CC[C@]3(C)[C@@H]([C@H](C)CCC=C(C)C)CC[C@@]3(C)[C@@H]5CC[C@H]4C2(C)C)ccc1O
Potency (CRL-7250): inconclusive: 5.31 µM [inhibitor, single point]
max response (KB-3-1): inactive: 0.76% and inactive: -6.22%
max response (NIH3T3): inactive: 0.391%
Potency (astro): active: 17.8 µM and inconclusive: 31.6 µM [inhibitor, single point]

CCCCc1nc2cc(C=CC(=O)NO)ccc2n1CCN(CC)CC
Potency (CRL-7250): inconclusive: 0.59 µM [inhibitor, full curve, poor fit]
Potency (HaCat): active: 4.69 µM
Potency (MCC-13): active: 7.43 µM
Potency (MCC-26): active: 8.33 µM
Potency (MKL-1): active: 3.32 µM
Potency (MKL-2): active: 0.526 µM

CC(=O)Oc1ccc(C2(c3ccc(OC(C)=O)cc3)C(=O)Nc3ccccc32)cc1
Potency (CRL-7250): inconclusive: 5.31 µM [inhibitor, full curve]
max response (KB-3-1): inactive: -1.67% and inactive: 11.5%
Potency (UISO): inconclusive: 13.3 µM [inhibitor, partial curve]
Potency [2]: inconclusive: 14.1 µM [inhibitor, partial curve, poor fit] and inconclusive: 12.6 µM [inhibitor, single point]
Potency (astro): inconclusive: 0.316 µM [inhibitor, full curve]
Potency ([1]; HiBiT): inconclusive: 0.279 µM [inhibitor, full curve]
activity change, negative = inhibition ([1]; Viability, at 45.9 µM (top of the series)): inactive: -23.2%

CCN(CCCCOC(=O)c1ccc(OC)c(OC)c1)C(C)Cc1ccc(OC)cc1 (configuration not stated)
outcome (CRL-7250): inactive
max response (NIH3T3): inactive: -18.2%
